# Experimental data as given in PubChem BioAssay AID881 (National Center for Advancing Translational Sciences (NCATS), 2007).
# The whole screen tested about 110,000 compounds, of which about 610 (0.55%) were called active. Inconclusive results, whose numbers are uncertain, are shown with a selection of clear calls. The call rests on the fitted dose curve; in most records, active means well fitted inhibition curve with a large enough effect; inconclusive means small, poorly fitted or top-dose-only effect; inactive means no such curve, though single readings can be large or run the other way. Where the call is inconclusive, the potency comes from a doubtful curve fit.
# Molecular target: Polyunsaturated fatty acid lipoxygenase ALOX15B (Homo sapiens) (UniProt O15296)
# Test: qHTS Assay for Inhibitors of 15-hLO-2 (15-human lipoxygenase 2); further: nearly all actives have a fitted effect of over 60% in size
# Settings: purified 15hLO-2, xylenol orange hydroperoxide absorbance; activity change, negative = inhibition: at 57.1 µM (top of the series) unless noted
# Description: Assay Overview: NIH Molecular Libraries Screening Centers Network [MLSCN] NIH Chemical Genomics Center [NCGC] MLSCN Grant: MH081283-01A1 PI Name: Holman, T.R., University of California, Santa Cruz Human lipoxygenase 15hLO-2 is a member of the closely related lipoxygenase family of enzymes which catalyze the site-specific oxidation of arachidonic acid to various hormone precursor molecules and as such is a candidate for drug development in a variety of disease areas, such as cancer and inflammation. Inhibition of 15hLO-2 activity was screened by utilizing arachidonic acid as a substrate. The extent of hydroperoxide product formation was measured by a secondary chromogenic reaction in which xylenol orange (XO, Sigma-Aldrich, cat. number 39,818-7) reacts with the ferric ions produced from the reaction between the hydroperoxide and ferrous ions. The Fe(III)-XO complex is characterized with red-shifted absorbance at 560 nm. A purified preparation of human 15hLO-2 was supplied by Professor Ted Holman, University of California, Santa Cruz.
# Assay Protocol: Buffer: 25 mM Hepes pH 7.5, 0.01% Triton X-100. Reagents/Controls: Buffer in columns 3 and 4 as negative control (no enzyme). Substrate solution: 45 uM arachidonic acid (Sigma-Aldrich, St. Louis, MO) final concentration dispensed throughout the plate. Enzyme: 50 nM 15hLO-2 final concentration in columns 1, 2, 5-48. Column 1 is neutral (100% activity). Column 2 contained pin-transferred titration of NDGA (nordihidroguaiaretic acid, Sigma-Aldrich, N 5023, top concentration 10 mM in DMSO, then 1:2 dilution in duplicate). (Dilution factor: 23 nL into 4 uL.) Chromogenic detection reagent (divalent iron/xylenol orange, Fe-XO): 200 uM xylenol orange plus 300 uM ferrous ammonium sulfate prepared freshly in 50 mM sulfuric acid. Assay Steps: Three uL of enzyme were dispensed to 1536-well Greiner black clear bottom plates. Compounds and controls (23 nL) were transferred via Kalypsys PinTool. The plates were incubated for 15 min at room temperature, and then 1 uL of substrate solution was added to start the reaction. After room temperature incubation for 90 minutes, 4 uL of Fe-XO solution was added to each well followed by a short spin (1000 rpm, 15 sec) and the plates were then incubated for 30 min. The absorbance at 405 and 573 nm were measured using ViewLux (Perkin-Elmer) High-throughput CCD imager and absorbance protocol settings. The 573-to-405 absorbance ratio was used to compute reaction progress.
# On the % scale 0 is the no-effect control and ±100 the full control effect; potency means the concentration at half of the fitted maximal effect; tags describe the fitted curve by direction and shape.
# Chain of UniProt O15296 (O15296 whole entry, looked up): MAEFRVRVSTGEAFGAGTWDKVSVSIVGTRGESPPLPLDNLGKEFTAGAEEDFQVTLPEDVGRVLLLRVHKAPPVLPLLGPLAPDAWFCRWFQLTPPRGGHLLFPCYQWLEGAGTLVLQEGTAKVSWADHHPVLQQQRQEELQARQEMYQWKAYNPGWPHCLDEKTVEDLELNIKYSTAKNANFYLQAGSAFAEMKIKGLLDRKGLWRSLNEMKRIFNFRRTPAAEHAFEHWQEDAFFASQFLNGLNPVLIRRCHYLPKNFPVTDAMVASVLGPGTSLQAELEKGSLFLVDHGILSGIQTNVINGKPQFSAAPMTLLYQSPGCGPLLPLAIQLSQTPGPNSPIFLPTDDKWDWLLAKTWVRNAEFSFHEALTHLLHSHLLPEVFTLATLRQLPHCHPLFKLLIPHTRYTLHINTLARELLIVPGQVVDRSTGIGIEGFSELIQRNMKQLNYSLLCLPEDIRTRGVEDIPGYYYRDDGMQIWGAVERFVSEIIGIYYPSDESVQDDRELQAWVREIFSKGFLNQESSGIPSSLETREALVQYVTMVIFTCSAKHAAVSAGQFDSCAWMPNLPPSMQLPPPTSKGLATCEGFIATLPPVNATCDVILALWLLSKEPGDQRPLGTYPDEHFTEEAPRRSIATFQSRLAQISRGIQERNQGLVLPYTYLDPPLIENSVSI
SMILES,Potency,"activity change, negative = inhibition"
CCc1ccc(OCC(=O)NNC(=O)CSc2ncnc3sc(C)c(C)c23)cc1,"inconclusive: 31.6 µM [inhibitor, single point]",
Cc1ccc(Cn2c(=O)n(CCC(=O)NCc3ccc4c(c3)OCO4)c(=O)c3ccccc32)cc1,"inconclusive: 25.1 µM [inhibitor, single point]",
O=C1Nc2ccccc2SC(c2ccccc2)C1O (stereo unspecified),"inconclusive: 31.6 µM [inhibitor, single point]",
O=C(O)c1ccccc1Nc1ccccc1C(=O)O,inactive,
CCN1C(=O)/C(=C\c2ccco2)C(C(=O)OC)=C1C,"inconclusive: 10 µM [inhibitor, partial curve]",
CC(C)(C)NC(=O)CSc1nnc(NC(=O)CCn2cnc3ccccc3c2=O)s1,,inactive: 1.49% [at 2.29 µM]
Cc1cc(-n2c(=O)c(C#N)cc3c(=O)n4ccccc4nc32)no1,"inconclusive: 15.8 µM [inhibitor, partial curve]",
CCOc1ccc(N=C2NC(=O)S/C2=C\c2ccc(N(C)C)cc2)cc1,"inconclusive: 20 µM [inhibitor, partial curve]",
CCOc1ccc(C(=O)c2ccc(O)c(O)c2O)cc1,"inconclusive: 12.6 µM [inhibitor, partial curve]",
CCOc1ccccc1C(=O)NCC(=O)OCC(=O)NCCc1ccc(S(N)(=O)=O)cc1,inactive,
CCN(CC)C(=O)c1sc(NC(=O)c2cc(-c3ccc(C)s3)nc3ccccc23)c(C(=O)OC)c1C,"inconclusive: 25.1 µM [inhibitor, single point]",
Cc1ccc(C2CC(c3ccccc3)=NN2C(=S)Nc2ccccc2)o1 (stereo unspecified),"inconclusive: 25.1 µM [inhibitor, single point]",
CSc1nncn1/N=C/c1ccc2c(c1)OCO2,"inconclusive: 0.251 µM [inhibitor, full curve, poor fit]",
CCOCCCNC(=O)C(c1ccccc1)N(Cc1ccc2c(c1)OCO2)C(=O)CNC(C)=O (stereo unspecified),inactive,
Cc1cc(=O)oc2cc(NC(=O)c3cc4ccccc4o3)ccc12,"inconclusive: 25.1 µM [inhibitor, single point]",
CCc1ccc(NC(=S)Nc2cccc(OC)c2)cc1,"inconclusive: 31.6 µM [inhibitor, single point]",
Cc1cc(C)cc(CSCC(=O)N/N=C/c2ccc(OCC(=O)NCc3ccco3)cc2)c1,"inconclusive: 31.6 µM [inhibitor, single point]",
CCCCn1c2c(c(=O)n(C)c1=O)C(CC(=O)OCC(=O)Nc1cccc(C(F)(F)F)c1)C(=O)N2 (stereo unspecified),"inconclusive: 25.1 µM [inhibitor, single point]",
CCOC(=O)C1=C(O)/C(=C\c2ccc(CNC(=O)C(=O)Nc3ccccc3)o2)N=C1C,"inconclusive: 10 µM [inhibitor, partial curve]",
Cc1[nH]nc2c1C(c1ccc(-c3ccccc3C#N)o1)C(C#N)=C(N)O2 (stereo unspecified),"inconclusive: 20 µM [inhibitor, partial curve]",
COc1ccccc1CC(=O)NCc1ccc2c(c1)OCO2,inactive,
CCn1c(C(=O)N2CCC(C(=O)NCCCSC3CCCCC3)CC2)cc2sccc21,"inconclusive: 31.6 µM [inhibitor, single point]",

SMILES,Potency,"activity change, negative = inhibition"
Cc1ccc(C(=O)Oc2oc(-c3ccco3)nc2C=Nc2ccccc2)cc1,"inconclusive: 15.8 µM [inhibitor, partial curve]",
O=C(Nc1ccc2nn(-c3ccccc3)nc2c1)c1ccc(Br)o1,"inconclusive: 25.1 µM [inhibitor, single point]",
CCCC(O)(CCC)C(=O)NNc1ccccc1,"inconclusive: 1.58 µM [inhibitor, full curve]",
CCN1C(=O)/C(=C2/SC(C)=C(C)N2CC)SC1=S,"inconclusive: 25.1 µM [inhibitor, single point]",
S=C(Nc1ccc(N2CCOCC2)cc1)Nc1ccc2nc(-c3ccco3)c(-c3ccco3)nc2c1,"inconclusive: 25.1 µM [inhibitor, partial curve]",
O=c1cc(CO)oc(C(Nc2ccccn2)c2ccsc2)c1O (stereo unspecified),"inconclusive: 5.01 µM [inhibitor, full curve, poor fit]",
Cc1ccc(NC(=O)CS(=O)CC(=O)Nc2ccc3c(c2)OCO3)cc1Cl (stereo unspecified),"inconclusive: 20 µM [inhibitor, single point]",
C=C(C)CN1C(=O)C(O)(CC(=O)c2ccc3c(c2)OCCO3)c2ccccc21 (stereo unspecified),inactive,
C/C(=N\Nc1ccc([N+](=O)[O-])cc1)c1cccc(N)c1,"inconclusive: 20 µM [inhibitor, partial curve]",
Nc1ccc2cc3ccccc3cc2c1,"inconclusive: 3.98 µM [inhibitor, full curve, poor fit]",
Cc1ccc(OCC(=O)N/N=C/C=C/c2ccco2)cc1,"inconclusive: 15.8 µM [inhibitor, partial curve]",
O=C(N/C(=C\c1cccc([N+](=O)[O-])c1)C(=O)N1CCCCC1)c1cccs1,inactive,
Cc1ccc(C=Nc2ccc(N(C)C)cc2)o1,"inconclusive: 31.6 µM [inhibitor, single point]",
Cc1ccc(C)c(-n2c(Cc3cc(=O)[nH]c(=O)[nH]3)nnc2SCC(=O)NCC2CCCO2)c1 (stereo unspecified),"inconclusive: 0.158 µM [inhibitor, full curve]",
C=CCn1c(C)cc(C(=O)CSc2nc3ccccc3c(=O)[nH]2)c1C,"inconclusive: 25.1 µM [inhibitor, single point]",
CCN(CC)C(=O)COC(=O)c1cc(-c2ccc(OC)cc2)nc2ccccc12,"inconclusive: 12.6 µM [inhibitor, partial curve]",
O=C(Nc1cccnc1)c1cccs1,inactive,
Cc1nn(-c2ccc(Cl)cc2)c2sc(C(=O)c3c(N)n(C)c(=O)n(C)c3=O)cc12,"inconclusive: 39.8 µM [inhibitor, single point]",
O=c1ccc2ccc(O)c(O)c2o1,"inconclusive: 7.94 µM [inhibitor, partial curve]",
Cc1ccc(NC(=O)CSC(N)=O)cc1Cl,"inconclusive: 20 µM [inhibitor, partial curve]",
Cn1cnnc1SCC(=O)N1c2ccccc2-c2c(ssc2=S)C1(C)C,"inconclusive: 25.1 µM [inhibitor, partial curve]",
COC(=O)N1CCC2(CC1)CN(C(=O)Nc1ccc(OC)cc1)C2,inactive,

SMILES,Potency,"activity change, negative = inhibition"
Cc1ccc(C2CC2c2n[nH]c(=S)n2-c2ccc(Cl)cc2)cc1 (stereo unspecified),"inconclusive: 12.6 µM [inhibitor, partial curve]",
CC(C)CC(=O)NC(=S)Nc1cccc(NC(=O)c2ccccc2Cl)c1,"inconclusive: 31.6 µM [inhibitor, single point]",
CCNC(=S)N/N=C/c1cc(Br)cc(Br)c1OC,"inconclusive: 7.94 µM [inhibitor, partial curve]",
C=C(c1ccc(O)cc1)c1ccc(O)cc1,"inconclusive: 25.1 µM [inhibitor, partial curve]",
CCOc1ccc2[nH]c(=O)c(CN(Cc3cccs3)Cc3nnnn3C(C)(C)CC)cc2c1,inactive,
COc1cccc(-c2cncnc2NCCN2CCOCC2)c1,inactive,
Cc1ccc(/C=c2\s/c(=C(/C#N)C(=O)N3CCCC3)n(Cc3ccco3)c2=O)s1,"inconclusive: 31.6 µM [inhibitor, single point]",
S=C(NCCN1CCOCC1)N/N=C/c1c2ccccc2cc2ccccc12,"inconclusive: 39.8 µM [inhibitor, single point]",
Clc1ccccc1-c1cc(NCc2ccccc2)ncn1,inactive,
O=C(Oc1ccc(-c2cnc3ccccc3n2)cc1)c1cc([N+](=O)[O-])ccc1Cl,"inconclusive: 12.6 µM [inhibitor, partial curve, poor fit]",
CCCN1C(=O)/C(=C/c2ccco2)SC1=Nc1ccc(OC)cc1,"inconclusive: 20 µM [inhibitor, single point]",
CCCCNC(=O)CCNS(=O)(=O)c1ccc(Br)cc1,inactive,
CN1CCC[C@@H]1c1cccnc1.O=C(O)c1ccccc1O.O=C([OH2+])c1ccccc1O.O=C([OH2+])c1ccccc1O.O=C([OH2+])c1ccccc1O.[Cu],"inconclusive: 3.16 µM [inhibitor, single point]",
Cc1ccc(S(=O)(=O)N(C)Cc2ccc(-c3nnco3)cc2)cc1,inactive,
O=C(COc1ccc2c(c1)OCO2)Nc1ccc2c(c1)oc1ccccc12,"inconclusive: 25.1 µM [inhibitor, partial curve]",
O=C(c1ccccc1)[C@@H]1O[C@H]1c1ccc(-c2ccccc2)cc1,inactive,
Nc1cc2c(nc3c4ccccc4c(N)cc3[n+]2-c2cccc3ccccc23)c2ccccc12 (tested in a mixture with another compound),"inconclusive: 3.16 µM [inhibitor, partial curve]",
Cc1oc(-c2ccccc2)cc1C(=O)Nc1ccc2ccccc2c1,"inconclusive: 6.31 µM [inhibitor, partial curve]",
C[C@@H](C(=O)NCc1nc2ccccc2[nH]1)[C@@H]1C[C@@]1(C)[C@@H](NC(=O)OCc1ccccc1)c1ccccc1,inactive,
CCOC(=O)c1c(C=O)c(C)n(Cc2ccccc2)c1C,"inconclusive: 25.1 µM [inhibitor, partial curve]",
S=c1[nH]nc(-c2ccco2)n1/N=C/c1ccc(Br)s1,"inconclusive: 0.158 µM [inhibitor, full curve]",
CCN(CC)C(=O)c1sc2nc(N3CCOCC3)c3c(c2c1N)CCCC3,"inconclusive: 31.6 µM [inhibitor, single point]",
